90 compounds from publication PMC4336329 (PLoS ONE, 2015) can be followed below.

Out of some 310,000 compounds screened, about 14,000 (4.5%) showed an effect of 50% or more. The effect is printed as a negative number. Some of the results follow.
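Also: peak tail current of the secondary pulse compared with the same well before compound.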

This assay deals with human ether-à-go-go-related gene (hERG) potassium channel (human, UniProt Q12809). In words: primary screen, population patch clamp on CHO cells stably expressing hERG.
Chain of human ether-à-go-go-related gene (hERG) potassium channel (Q12809 whole entry, looked up): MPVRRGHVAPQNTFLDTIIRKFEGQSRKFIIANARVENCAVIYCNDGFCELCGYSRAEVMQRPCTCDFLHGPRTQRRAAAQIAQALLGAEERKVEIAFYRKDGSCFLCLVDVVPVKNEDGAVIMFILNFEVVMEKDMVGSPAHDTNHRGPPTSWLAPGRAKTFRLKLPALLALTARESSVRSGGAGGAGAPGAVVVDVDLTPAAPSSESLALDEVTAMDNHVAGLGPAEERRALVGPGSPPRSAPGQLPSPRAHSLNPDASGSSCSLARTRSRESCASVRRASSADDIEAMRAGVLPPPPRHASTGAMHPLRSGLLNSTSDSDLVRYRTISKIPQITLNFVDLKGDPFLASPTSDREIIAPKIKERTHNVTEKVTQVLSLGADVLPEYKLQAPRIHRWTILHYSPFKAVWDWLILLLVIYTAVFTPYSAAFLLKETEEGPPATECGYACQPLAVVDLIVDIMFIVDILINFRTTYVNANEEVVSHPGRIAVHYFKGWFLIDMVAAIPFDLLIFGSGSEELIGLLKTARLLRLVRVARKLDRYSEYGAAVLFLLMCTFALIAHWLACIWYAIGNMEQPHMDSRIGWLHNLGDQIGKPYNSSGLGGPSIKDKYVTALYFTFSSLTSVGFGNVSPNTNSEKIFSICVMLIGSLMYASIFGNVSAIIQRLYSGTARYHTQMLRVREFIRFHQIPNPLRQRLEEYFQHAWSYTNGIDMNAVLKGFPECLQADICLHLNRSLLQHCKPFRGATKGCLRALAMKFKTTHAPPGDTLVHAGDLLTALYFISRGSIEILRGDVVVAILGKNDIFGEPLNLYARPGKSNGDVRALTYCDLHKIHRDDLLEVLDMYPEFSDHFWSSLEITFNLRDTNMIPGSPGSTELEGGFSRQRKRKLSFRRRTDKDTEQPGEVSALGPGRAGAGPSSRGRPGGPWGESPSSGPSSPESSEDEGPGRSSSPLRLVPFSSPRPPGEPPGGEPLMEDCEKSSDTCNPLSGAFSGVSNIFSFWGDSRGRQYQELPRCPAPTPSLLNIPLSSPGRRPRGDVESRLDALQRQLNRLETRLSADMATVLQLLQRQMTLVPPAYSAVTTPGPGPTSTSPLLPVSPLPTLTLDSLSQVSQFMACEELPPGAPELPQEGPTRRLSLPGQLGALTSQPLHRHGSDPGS
For `Cc1ccc(NC(=S)N(CCN2CCOCC2)Cc2ccccc2F)cc1Cl`, the “hERG current change (%, negative = inhibition) at 10uM” value is -12.3%.
As for `CCN1CC=C2C(C1)C(c1ccc(Cl)s1)C(C#N)=C(N)C2(C#N)C#N` (stereo not drawn), the figure is -25.9%.
In the case of `O=C(COc1ccccc1)Nc1nonc1NC(=O)COc1ccccc1`, the “hERG current change (%, negative = inhibition) at 10uM” value was -12.8%.
For `CSc1ccc(C(=O)C2CCCN(Cc3cnc(SC)nc3)C2)cc1` (stereo not drawn) the value was -76.4%.
As for `COc1cc(CNCCSc2nnnn2C)cc(Br)c1OCc1ccccc1.Cl`, the figure is -56.3%.
As for `COc1ccc(C(CNC(=O)Nc2cccc(C)c2)N2CCN(C)CC2)cc1` (stereo not drawn), the figure is -14.5%.
For the compound `COC(=O)C(C)NC(=O)c1cn(-c2ccccc2OC)c(=O)c2ccccc12` (stereo not drawn), the “hERG current change (%, negative = inhibition) at 10uM” value stood at 15.6%.
As for `COc1ccc(C)cc1NC(=O)C1CCN(S(=O)(=O)c2ccccc2)CC1`, the figure is 3.67%.
For `CC(C)(C)c1ccc(C(=O)NNC(=O)C(=O)N2CCCCC2)cc1` the value was 14.3%.
As for `COc1ccc(CCNC(=O)c2nnn(CC(=O)Nc3ccccc3C)c2N)cc1OC`, the figure is 16.3%.
In the case of `COC(=O)NC(NC(=S)Nc1ccc([N+](=O)[O-])cc1)C(Cl)(Cl)Cl` (stereo not drawn), the “hERG current change (%, negative = inhibition) at 10uM” value is listed as 3.93%.
For `O=C(NC(NC(=S)Nc1c(Cl)cccc1Cl)C(Cl)(Cl)Cl)OCc1ccccc1` (stereo not drawn) the value was 7.52%.
For `COc1ccc(NC(=O)Cn2nc(C)c([N+](=O)[O-])c2C)cn1` the value was 4.49%; for `COc1ccc(Cl)cc1NC(=O)COC(=O)C1CCCCC1`, 7.15%.
As to `Cc1nc2ccccc2n1CCOc1ccc(F)cc1`, the “hERG current change (%, negative = inhibition) at 10uM” value is listed as -19.8%.
As for `CCCn1c(=O)c(C(=O)Nc2ccccc2)c(O)c2ccccc21`, the figure is 0.0267%; as for `Cc1ccc(S(=O)(=O)/N=C(\c2ccc(Cl)cc2)N2CCOCC2)cc1`, -27.8%; as for `COc1ccc(CN2CCNC(=O)C2CC(=O)NCCN2CCCCC2=O)c(F)c1` (stereo not drawn), 19.1%.
As for `Cc1cc(C)n(-c2nc(NCCN(C)C)c3c4c(sc3n2)CCCC4)n1`, the figure is -16.3%; as for `CCc1ccc(NC(=S)NC2CCN(Cc3ccccc3)CC2)cc1`, -36.9%; as for `CCN1CC(CN(C)Cc2nc(-c3cccs3)no2)CC1=O` (stereo not drawn), 3.65%.
As for `COc1cc(/C=C/C(=O)OCC(=O)NCCc2ccccc2)ccc1OC(F)F`, the figure is 5.85%; as for `COc1ccc(C(CNc2ccc(C(F)(F)F)cn2)N(C)C)cc1OC` (stereo not drawn), -32.2%; as for `CCOC(=O)CNC(=O)N1CCCC(N(C)CCc2ccccc2)C1` (stereo not drawn), -8.25%.
Turning to `Cn1c(SCc2ccc(Br)cc2)nnc1-c1ccccn1`, the “hERG current change (%, negative = inhibition) at 10uM” value is reported as -19.4%.
As for `Nc1ncnc(N2CCOCC2)c1N`, the figure is -4.16%; as for `CC(=O)NC12CC3CC(C1)CC(C(=O)N(C)Cc1cccc(Cl)c1Cl)(C3)C2`, -25.3%.
As for `CCOC(=O)c1ccc(NC(=O)C2CC(=O)N(c3ccc4c(c3)OCCO4)C2)cc1` (stereo not drawn), the figure is 10.7%; as for `CC1CCCCN1C(=O)CSc1nnc(-c2ccco2)o1` (stereo not drawn), 2.08%.
As for `NC(=O)NCc1ccc(F)cc1`, the figure is 11.8%; as for `Cc1cc(NC(=O)CCN2C(=O)C3C4CCC(C4)C3C2=O)c(C)cc1Br` (stereo not drawn), -17.6%; as for `Nc1nc(-c2ccc3c(c2)CCCC3)cs1`, -0.274%.
For the compound `COCCNC(=S)c1ccc(OC)cc1`, the “hERG current change (%, negative = inhibition) at 10uM” value is reported as -6.68%.
As for `CCCc1ccc(-c2ccc(-c3noc(-c4ccncc4)n3)cc2)nc1`, the figure is -5.98%; as for `Cc1c(Cl)cccc1NC(=O)CSc1nc2c(c(=O)[nH]1)CCCC2`, 15.1%.
For `CCOC(=O)c1cc(COc2cc(Cl)cc(Cl)c2)on1` the value was 12.8%.
As for `CCC1=NN(C(=O)Cc2ccc(OC)cc2)C(O)(C(F)(F)F)C1` (stereo not drawn), the figure is -6.51%.
On to `COc1ccc(N=Nc2[nH]c3ccc(C)cc3c2O)cc1`, for which the “hERG current change (%, negative = inhibition) at 10uM” value was found to be 18.9%.
For `Cc1ccc(S(=O)(=O)N(C)CC(=O)Nc2ccc(C)cn2)cc1` the value was -14.5%.
As to `COc1ccc(/C=N/NC2=NCCCCC2)c(OC)c1.Cl`, the “hERG current change (%, negative = inhibition) at 10uM” value is 20.3%.
For `COCCNC(=O)[C@H](C)[C@H]1C[C@]1(C)[C@H](NC(=O)OCc1ccccc1)c1ccccc1`, the “hERG current change (%, negative = inhibition) at 10uM” value was -7.83%.
With `Cc1cc(NC(=O)CCC(=O)N(CC(=O)NC2CCCC2)c2ccccc2)no1`, the “hERG current change (%, negative = inhibition) at 10uM” value is 7.27%.
As for `CCN(CC)S(=O)(=O)c1ccc(N=Cc2c(C)c(C#N)c(=O)n(C)c2O)cc1`, the figure is 0.71%; as for `CSc1nc2cc3c(cc2n1C(=O)c1ccc(C)cc1)OCCO3`, 17.1%.
As for `COc1ccc(CCN(Cc2cccs2)S(=O)(=O)c2ccc(S(=O)(=O)N3CCC(C)CC3)cc2)cc1OC`, the figure is 16.7%; as for `O=S(=O)(Nc1ccccc1Cl)c1cccc2nsnc12`, -5.19%; as for `C=CCSc1nc(N)c(C(=O)Nc2ccccc2C)cc1C(N)=O`, 6.27%.
For `O=C(NNc1ccccc1)C(=O)N1CCCCC1` the value was 8.69%; for `CCCNC(=O)c1ccc(C2SCC(=O)N2Cc2ccccc2)cc1` (stereo not drawn), -5.51%; for `CCOc1ccc(C2NC(=O)c3n[nH]c(C)c32)cc1` (stereo not drawn), 1.15%.
In the case of `Nc1nonc1C(=O)N/N=C\c1cc2c(cc1Cl)OCO2`, the “hERG current change (%, negative = inhibition) at 10uM” value is listed as 12.2%.
For `O=C(Nc1cccnc1)c1cc(-c2ccc(Cl)c(Cl)c2)on1` the value was 19.7%.
As for `COc1cccc(-n2ccnc2SCC(=O)Nc2cc(OC)ccc2OC)c1`, the figure is -10.5%; as for `COc1ccc(S(=O)(=O)NCCSCc2ccco2)cc1`, -12.6%; as for `CC(C)CNC(=O)C(=O)Nc1ccc2c(c1)N(S(=O)(=O)c1cccs1)CCC2`, -1.04%.
For `O=S(=O)(CS(=O)(=O)c1ccc(Cl)cc1)c1ccc(Cl)cc1` the value was 11.5%; for `Cc1cccc(N2C(=O)CC(Cn3nc(C)cc3C)C2=O)c1` (stereo not drawn), 15.8%; for `CCOc1ccccc1C1C(C#N)=C(SCC(=O)OC)NC(=O)C1C(=O)OC` (stereo not drawn), -20.1%.
Regarding `CCN(CC(=O)Nc1ccc2c(c1)OCCO2)C(=O)CSCC(=O)Nc1ccc(C)cc1`, the “hERG current change (%, negative = inhibition) at 10uM” value was -31.1%.
For `Cc1ccc(C(C[N+](=O)[O-])c2c(C)cc3ccccn23)cc1` (stereo not drawn) the value was 3.84%; for `CCN(CC)C(=O)c1sc2nc(-c3ccncc3)[nH]c(=O)c2c1C`, 7.11%.
As for `O=C(NCCc1ccncc1)Nc1ccc(Cl)c(Cl)c1`, the figure is -38.4%.
As for `N#Cc1c(NCc2ccccc2)ccnc1Cl`, the figure is -27.3%; as for `Cn1cc(S(=O)(=O)N2CCN(Cc3ccccc3)CC2)c(=O)n(C)c1=O`, -13%; as for `COc1ccc2[nH]c(C)c(C(=O)CN3CCOCC3)c2c1`, 7.05%.
With `c1ccc2c3c(c(CN4CCCC4)cc2c1)COC3`, the “hERG current change (%, negative = inhibition) at 10uM” value is -13.8%.
As for `NC(=O)c1ccc(-n2nnnc2SCC(=O)c2ccc(O)c(O)c2)cc1`, the figure is 28.3%.
For `CCCc1cc(=O)[nH]c(SCC(=O)c2c(N)n(CC(C)C)c(=O)n(C)c2=O)n1` the value was -15.5%; for `CC(OC(=O)c1ccc(Cl)nc1)C(=O)Nc1ccc(S(=O)(=O)N2CCCC2)cc1` (stereo not drawn), -40.3%.
On to `Cc1ccccc1-c1nc2sc(-c3ccccc3)cc2c(=O)o1`, for which the “hERG current change (%, negative = inhibition) at 10uM” value is given as 29.9%.
As for `Cc1ccnn1CC(=O)N/N=C/c1cccs1`, the figure is -7.51%; as for `Cc1ccc(-n2nc(CC#N)c(C#N)c2N)cc1`, 3.84%.
As for `COc1cc(/C=N/Nc2ccc([N+](=O)[O-])cc2S(=O)(=O)N2CCOCC2)cc(OC)c1OC`, the figure is -3.33%; as for `C/C(N)=C(/C#N)C(=O)CSc1cc(C)c2cc(C)cc(C)c2n1`, 2.54%; as for `COC(=O)/C=C/C(=O)N1CCN(c2ccccc2C)CC1`, -2.32%.
As for `CCOC(=O)C1(CCOc2ccccc2)CCN(Cc2nccn2CC)CC1`, the figure is -58.2%; as for `CCC1(C)Cc2c(sc3nnn(Cc4ccccc4Cl)c(=O)c23)CO1` (stereo not drawn), 13.8%.
`O=C(CCn1ccc2cc(S(=O)(=O)N3CCCC3)ccc21)NCc1ccccc1`: the “hERG current change (%, negative = inhibition) at 10uM” value is 1.25%.
For the compound `Cc1cc(SCC(=O)N(C)c2c(N)n(Cc3ccccc3)c(=O)[nH]c2=O)nc2ccccc12`, the “hERG current change (%, negative = inhibition) at 10uM” value turned out to be 31.2%.
As for `COC(=O)C1=C(C)N(c2ccc(C)c(C)c2)/C(=C/c2ccc(O)cc2)C1=O`, the figure is -0.474%; as for `COc1cccc(NC(=O)C2CCN(S(=O)(=O)c3ccc4c(c3)OCCO4)CC2)c1`, 30%.
For `CC(CN1CCCCC1)OC(=O)C(C)(c1ccccc1)c1ccccc1.Cl` (stereo not drawn) the value was -52.3%; for `Cc1c(Cl)cccc1NC(=O)c1cccnc1`, 10.7%.
For `Cc1ccc(NC(=O)N2Cc3ccccc3CC2C(=O)NC(C)(C)C)cc1` (stereo not drawn) the value was 9.45%; for `COc1cccc(NC(=O)CCCNC(=O)Cn2cnc3sc(C)c(C)c3c2=O)c1`, 4.45%.
As to `COc1ccc(OC)c(NC(=O)Cn2cc(C=O)c3ccccc32)c1`, the “hERG current change (%, negative = inhibition) at 10uM” value came to 19.8%.
For `Cc1ccc(C)c(S(=O)(=O)N2CC(=O)N(CCc3ccccc3)C(=O)C2)c1` the value was 12%; for `Cc1ccc(CC2CC(=O)N(c3nc4ccccc4s3)C2=O)cc1` (stereo not drawn), 9.26%.
For `O=C(O)CN=C(NS(=O)(=O)c1ccc(Cl)cc1)c1ccc(F)cc1` the value was 15.9%; for `O=C(N/C(=C/c1cccc(Br)c1)c1nc(=S)[nH][nH]1)c1ccccc1`, 9.47%.
